From PMC4336329 (PLoS ONE, 2015)
Out of some 310,000 compounds screened, about 14,000 (4.5%) showed an effect of 50% or more. The effect is printed as a negative number. The list shows a part of the results.

Each compound was assayed against human ether-à-go-go-related gene (hERG) potassium channel (human, UniProt Q12809) (assay: primary screen, population patch clamp on CHO cells stably expressing hERG).
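Note: peak tail current of the secondary pulse compared with the same well before compound.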

Sequence of human ether-à-go-go-related gene (hERG) potassium channel (Q12809 whole entry, looked up): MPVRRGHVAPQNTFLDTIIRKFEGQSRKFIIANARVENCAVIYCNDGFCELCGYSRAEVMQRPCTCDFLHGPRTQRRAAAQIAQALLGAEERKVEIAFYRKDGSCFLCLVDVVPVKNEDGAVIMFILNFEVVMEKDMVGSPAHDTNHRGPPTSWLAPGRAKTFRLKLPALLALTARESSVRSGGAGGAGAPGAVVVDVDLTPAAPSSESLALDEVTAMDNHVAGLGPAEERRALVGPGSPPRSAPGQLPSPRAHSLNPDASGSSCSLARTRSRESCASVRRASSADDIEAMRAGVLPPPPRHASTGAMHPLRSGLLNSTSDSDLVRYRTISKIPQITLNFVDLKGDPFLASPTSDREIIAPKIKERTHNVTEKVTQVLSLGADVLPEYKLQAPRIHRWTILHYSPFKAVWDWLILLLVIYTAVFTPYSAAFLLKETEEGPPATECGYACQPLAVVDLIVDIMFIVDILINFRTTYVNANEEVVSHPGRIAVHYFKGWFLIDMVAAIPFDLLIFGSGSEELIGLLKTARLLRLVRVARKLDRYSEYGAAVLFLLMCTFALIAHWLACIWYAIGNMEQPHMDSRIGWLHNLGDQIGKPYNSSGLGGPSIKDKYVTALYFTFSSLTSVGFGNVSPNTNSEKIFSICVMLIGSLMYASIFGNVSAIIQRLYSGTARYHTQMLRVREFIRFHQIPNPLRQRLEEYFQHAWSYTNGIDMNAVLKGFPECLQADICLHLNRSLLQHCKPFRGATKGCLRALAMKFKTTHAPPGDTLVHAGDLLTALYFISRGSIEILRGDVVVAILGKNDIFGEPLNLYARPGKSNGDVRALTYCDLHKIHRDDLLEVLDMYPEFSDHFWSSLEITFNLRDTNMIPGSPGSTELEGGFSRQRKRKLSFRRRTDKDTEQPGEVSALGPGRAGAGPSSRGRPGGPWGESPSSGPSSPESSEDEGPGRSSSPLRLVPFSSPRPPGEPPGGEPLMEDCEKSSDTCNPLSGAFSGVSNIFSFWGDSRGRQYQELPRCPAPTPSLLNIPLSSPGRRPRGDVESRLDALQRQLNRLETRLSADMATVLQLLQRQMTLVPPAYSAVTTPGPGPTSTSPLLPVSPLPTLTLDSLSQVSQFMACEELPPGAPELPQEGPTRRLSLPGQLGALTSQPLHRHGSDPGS

| SMILES | hERG current change (%, negative = inhibition) at 10uM [%] |
| --- | --- |
| CC(=O)c1c(C)[nH]c(C(=O)Nc2cc(C)ccc2C)c1C | -3.14 |
| CCOc1ccccc1C(=O)Nc1nnc(SCC(=O)N2CCOCC2)s1 | 16.7 |
| CCn1c(COc2ccc3c(c2)CCCC3)nnc1SCC(=O)Nc1ccc(C(=O)OC)cc1 | 5.43 |
| Cn1ccnc1SCC(=O)c1ccc(F)cc1 | 17 |
| Cc1ccc(C(=O)COC(=O)C2CCC2)cc1 | 12.9 |
| Cc1ccc(C(C)C)c(OCC(=O)NC2CCN(C)CC2)c1 | -12.4 |
| O=C(c1ccccc1CCc1ccccc1)N1CCOCC1 | 9.4 |
| CN(C(=O)c1ccc(NC(=O)Cc2cccc(NC(=O)C3CCCN(C(=O)C4CCCC4)C3)c2)cc1)C1CCCC1 (stereo not drawn) | 6.86 |
| Cc1ccc(-c2csc3nnc(SCC(=O)NCc4ccc5c(c4)OCO5)n23)cc1 | -32.4 |
| Cc1ccc(C(=O)Nc2cccnc2)cc1S(=O)(=O)N1CCCCC1 | -2.38 |
| CCOc1cc(C(=O)N(C)CC(=O)Nc2cccc(F)c2)ccc1OCC(=O)N1CCCCC1 | -14.1 |
| Cc1cccc(Nc2nc(N)c([N+](=O)[O-])c(NCc3ccccc3)n2)c1 | 6.43 |
| COc1ccc(NC(=O)C2Cc3ccccc3CN2C(=O)c2ccccc2)cn1 (stereo not drawn) | 0.984 |
| CC(OC(=O)COc1ccc(C#N)cc1)C(=O)Nc1ccc(Cl)cn1 (stereo not drawn) | -43.4 |
| COc1ccccc1-c1nc(SCC(=O)NCc2ccco2)c2c(=O)n(C)c(=O)n(C)c2n1 | 5.63 |
| CC(C)c1ccc(Nc2nc(NCc3ccco3)nc(N3CCOCC3)n2)cc1 | 1.48 |
| COc1ccc(/C=C2\CCc3ccccc3C2=O)cc1O | -0.423 |
| CC1CCN(c2oc(Cc3cccc4ccccc34)nc2C#N)CC1 | -5.47 |
| C/C(=N\NC(=O)c1cc(C)[nH]n1)c1cccs1 | 18.5 |
| COCCOC(=O)C1=C(N)Oc2c(c(=O)oc3ccccc23)[C@@]12C(=O)Nc1ccccc12 | 11.8 |
| CC(=O)c1ccc(-c2ccc(C(=O)NC3CC(C)(C)NC(C)(C)C3)o2)cc1 | -122 |
| CCc1ccc(NC(=O)CN2CCC(C(=O)c3ccc(OC)cc3)CC2)cc1 | -62.8 |
| CC12COC3(C(=O)Nc4ccc5ccccc5c4)CC1CCC32C (stereo not drawn) | 2.36 |
| CN(C)c1nnnn1-c1ccc(Oc2ccccc2)cc1 | -3.26 |
